{"source": "PubChem BioAssay AID938", "about": "(National Center for Advancing Translational Sciences (NCATS), 2007)", "note": "Among all 73,000 compounds or so, about 1,800 (2.5%) were called active. Inconclusive means that the source gave no clear call. Such entries were picked first, then a sample of the others. The call rests on the fitted dose curve; in most records, active means well fitted activation curve with a large enough effect; inconclusive means small, poorly fitted or top-dose-only effect; inactive means no such curve, though single readings can be large or run the other way. Potencies of inconclusive entries are left out as doubtful fits. Potency means the concentration at half of the fitted maximal effect; tags describe the fitted curve by direction and shape.", "data": [{"experiment": "qHTS Assay for Agonists of the Thyroid Stimulating Hormone Receptor: Activators of Intracellular cAMP Concentrations in Parental HEK 293; further: nearly all actives have a fitted effect of over 55% in size; on activation: % of control where 0% means no effect", "settings": "parental HEK293 CNG cAMP sensor, membrane potential fluorescence; activation: at 57.1 µM (top of the series) unless noted", "method_in_brief": "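Parental HEK 293 cells stably expressing a modified CNG channel (no TSHR) report cAMP rise as membrane depolarization. Membrane potential dye with 100 uM RO 20-1724 was loaded for 60 min at room temperature, then compound added for 30 min; fluorescence read at 590 nm.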", "values": [{"smiles": "O=C(c1ccco1)N1CCN(S(=O)(=O)c2ccc(F)cc2)CC1", "activation": "inactive: 1.64%"}, {"smiles": "O=C(Nc1ccc2sccc2c1)c1ccc(Cl)s1", "activation": "inactive: 2.12%"}, {"smiles": "Cc1cccc(-c2nnc(SCc3nc4ccccc4[nH]3)n2Cc2ccco2)c1", "Potency": "active: 12.6 µM"}, {"smiles": "CCC(C)(C(=O)NC1CCCC1)N(Cc1ccco1)C(=O)c1ccccn1", "note": "(stereo not drawn)", "Potency": "inconclusive [activator, full curve]"}, {"smiles": "CC(C)(C=O)Cc1cc(C(C)(C)C)c(O)c(C(C)(C)C)c1", "Potency": "inconclusive [activator, single point]"}, {"smiles": "Oc1c(C(c2cccs2)N2CCN(c3cccc(Cl)c3)CC2)sc2ncnn12", "note": "(stereo not drawn)", "Potency": "inconclusive [activator, partial curve]"}, {"smiles": "OC1(c2cccc(C(F)(F)F)c2)CCN(c2ncnc3c2[nH]c2ccc(F)cc23)CC1", "activation": "inactive: -3.23%"}, {"smiles": "CCS(=O)(=O)n1nc(-c2ccccc2)nc1SCc1ccccc1", "Potency": "inconclusive [activator, single point]"}, {"smiles": "COc1cccc(-c2nc(NCCNC(C)=O)c3ccccc3n2)c1", "Potency": "inconclusive [activator, single point]"}, {"smiles": "CCOC(=O)c1cc2c(=O)n3ccccc3nc2n(CCOC)c1=NC(=O)C(C)(C)C", "activation": "inactive: 12.4%"}, {"smiles": "O=C(CSc1nc2ccccc2c(=O)n1Cc1ccco1)NCc1ccco1", "activation": "inactive: 26.8%"}, {"smiles": "Cc1ccccc1NC(=O)CSc1nc2c(c(-c3ccco3)c1C#N)CCCC2", "activation": "inactive: 27.8%"}, {"smiles": "O=C(Cn1cnc2c(cnn2-c2ccc(F)cc2)c1=O)NCCc1ccccc1", "Potency": "inconclusive [activator, single point]"}, {"smiles": "COc1cc(OC)cc(C(=O)N2CCCc3ccccc32)c1", "Potency": "inconclusive [activator, single point]"}, {"smiles": "CCOC(=O)CSc1ncnc2c1cnn2-c1ccc(Cl)cc1", "activation": "inactive: 12.6%"}, {"smiles": "CCOc1ccccc1-c1nc(-c2cc3ccccc3nc2OC)no1", "Potency": "inconclusive [activator, partial curve]"}, {"smiles": "CCc1cccc(NC(=O)Cn2ncn3c(cc4ccccc43)c2=O)c1", "Potency": "inconclusive [activator, single point]"}, {"smiles": "Oc1c(Cl)cc(CN(Cc2cc(Cl)c(O)c(Cl)c2)C2CCCCC2)cc1Cl", "Potency": "inconclusive [activator, single point]"}, {"smiles": "CCN(CC)S(=O)(=O)c1ccc(C2CNC(=O)C2)cc1", "note": "(stereo not drawn)", "Potency": "inconclusive [activator, full curve, poor fit]"}, {"smiles": "COc1ccccc1-c1nc(NCc2cnc(C)cn2)c2ccccc2n1", "activation": "inactive: -11.6%"}, {"smiles": "Cc1cc(NC(=O)Cc2cccs2)nn1CC(=O)NCc1ccco1", "Potency": "inconclusive [activator, single point]"}, {"smiles": "Cc1ccc(-c2cc(C(=O)N3CCN(c4ncccn4)CC3)c3ccccc3n2)cc1", "Potency": "inconclusive [activator, single point]"}, {"smiles": "Cc1cc(C)nc(-n2nc(C)cc2NC(=O)CN2CCC(C)CC2)n1", "Potency": "inconclusive [activator, partial curve]"}, {"smiles": "CCCCn1c(SCC(=O)Nc2nnc(C)s2)nc2c1c(=O)n(C)c(=O)n2C", "Potency": "inconclusive [activator, single point]"}, {"smiles": "CCOC(=O)C1=C(C)OC(N)=C(C#N)C1c1ccsc1", "note": "(stereo not drawn)", "Potency": "active: 20 µM"}, {"smiles": "COc1ccc(/C(O)=C2\\C(=O)C(=O)N(CC3CCCO3)C2c2cc(OC)ccc2OC)cc1", "note": "(stereo not drawn)", "Potency": "inconclusive [activator, full curve, poor fit]"}, {"smiles": "COc1ccc(S(=O)(=O)NCc2ccc3c(c2)OCO3)cc1C(=O)O", "activation": "inactive: 6.48%"}, {"smiles": "O=C(c1c(Cl)nc2sccn12)N1CCN(c2cccc(Cl)c2)CC1", "Potency": "active: 31.6 µM"}, {"smiles": "O=C(c1ccco1)N1CCN(c2cccc(Cl)c2)CC1", "Potency": "inconclusive [activator, single point]"}, {"smiles": "COc1ccccc1N1CCN(C(=O)C2c3ccccc3Oc3ccccc32)CC1", "Potency": "inconclusive [activator, partial curve]"}, {"smiles": "CCN(CC)S(=O)(=O)c1ccc(S(=O)(=O)Nc2cc3c(cc2C(C)=O)OCO3)cc1", "Potency": "inconclusive [activator, partial curve]"}, {"smiles": "Cc1ccc(-c2sc(C)nc2CC(=O)O)cc1", "activation": "inactive: 0.411%"}, {"smiles": "Cc1sc2ncnc(Sc3nnnn3-c3ccc(Cl)cc3)c2c1C", "Potency": "inconclusive [activator, single point]"}, {"smiles": "COCC(=O)N1CCC[C@@]2(CCN(C(c3ccccc3)c3ccccc3)C2)C1", "Potency": "inconclusive [activator, partial curve]"}, {"smiles": "COc1ccccc1N1C(=O)C2C3C=CC(C3)C2C1=O", "note": "(stereo not drawn)", "activation": "inactive: -8.06%"}, {"smiles": "Cc1cc(NC(=O)c2cc(C3CC3)on2)no1", "Potency": "inconclusive [activator, single point]"}, {"smiles": "CN1CCC(=C2c3ccccc3C=Cc3ccccc32)CC1", "Potency": "inconclusive [activator, partial curve, poor fit]"}, {"smiles": "FC(F)(F)c1ccccc1-c1cc(NCc2cccs2)ncn1", "Potency": "inconclusive [activator, partial curve, poor fit]"}, {"smiles": "O=C(Nc1ccc(S(=O)(=O)NCc2ccco2)cc1)c1ccc2ccccc2n1", "Potency": "inconclusive [activator, partial curve]"}, {"smiles": "COc1ccc(-c2cc(C(F)(F)F)nc(NCc3ccco3)n2)cc1OC", "Potency": "active: 10 µM"}, {"smiles": "c1ccc2c(c1)Cn1c-2nc2ccccc21", "Potency": "active: 15.8 µM"}, {"smiles": "CCC(C)COC(=O)c1ccc(C(=O)O)cc1", "note": "(stereo not drawn)", "activation": "inactive: 2.49%"}, {"smiles": "Cc1cc(C(=O)CC#N)c(C)n1-c1ccc(OC(F)F)cc1", "Potency": "inconclusive [activator, partial curve]"}, {"smiles": "Cn1cc(S(=O)(=O)NCc2cccs2)c(=O)n(C)c1=O", "Potency": "inconclusive [activator, partial curve]"}, {"smiles": "CCNc1ncc2nc(-c3ccc(OC)cc3)c(=O)n(C[C@H]3CCCO3)c2n1", "Potency": "inconclusive [activator, full curve]"}, {"smiles": "Cc1cc(-c2ccc(N=Nc3ccc4c(S(=O)(=O)O)cc(S(=O)(=O)O)c(N)c4c3O)c(C)c2)ccc1N=Nc1ccc2c(S(=O)(=O)O)cc(S(=O)(=O)O)c(N)c2c1O", "activation": "inactive: -18.7%"}, {"smiles": "COc1ccc(CCC(=O)N2CCN(C3CCCCC3)CC2)cc1", "Potency": "inconclusive [activator, partial curve]"}, {"smiles": "CCN1CCN(Cc2ccc(NC(=O)Nc3ccccc3OC)cc2)CC1", "activation": "inactive: -0.386%"}, {"smiles": "CCOc1ccccc1N1CCN(CC(=O)Nc2nnc(CC)s2)CC1", "activation": "inactive: 15.4%"}, {"smiles": "CCOc1cc2[nH]c(=O)n(CC3CCC(C(=O)NC(C)CC)CC3)c(=O)c2cc1OCC", "note": "(stereo not drawn)", "Potency": "inconclusive [activator, single point]"}, {"smiles": "CCn1ncc(Br)c1C(=O)Nc1cc(C(=O)OC)ccc1C(=O)OC", "Potency": "active: 12.6 µM"}, {"smiles": "O=C(CCNS(=O)(=O)c1cccc2nonc12)NCCc1ccc(Cl)cc1", "activation": "inactive: -9.97%"}, {"smiles": "CCCCCn1c(CN2CCN(c3cc(Cl)ccc3C)CC2)nc2c1c(=O)[nH]c(=O)n2C", "Potency": "inconclusive [activator, single point]"}, {"smiles": "CCOc1ccc(-c2nc(C#N)c(NCc3ccc4c(c3)OCO4)o2)cc1", "activation": "inactive: 6.48%"}, {"smiles": "CCOC(=O)C1=C(C)NC(C)=C(C(=O)OC)[C@H]1c1cccc([N+](=O)[O-])c1", "Potency": "inactive"}, {"smiles": "COc1cccc(-c2csc(N3CCN(C(=O)C4CCCCC4)CC3)n2)c1", "Potency": "inconclusive [activator, partial curve]"}, {"smiles": "COc1ccc(C(=O)c2ccc(OC)c(OC)c2)cc1OC", "Potency": "inconclusive [activator, single point]"}, {"smiles": "CCOc1ccccc1Nc1nnc(SCC(=O)N2CCCC2)s1", "Potency": "inconclusive [activator, single point]"}, {"smiles": "O=S(=O)(c1ccc2c(c1)C(=NO)c1cc(S(=O)(=O)N3CCCCC3)ccc1-2)N1CCCCC1", "Potency": "inconclusive [activator, partial curve]"}, {"smiles": "Cn1c(=O)oc2cc(S(=O)(=O)Nc3ccc(Cl)cc3F)ccc21", "Potency": "inconclusive [activator, single point]"}, {"smiles": "COCCn1c(=O)c(-c2ccc(OC)cc2)nc2cnc(Oc3ccc(OC)cc3)nc21", "Potency": "inconclusive [activator, partial curve, poor fit]"}, {"smiles": "O=C(Nc1nc(-c2ccc3c(c2)OCCO3)cs1)c1ccc(S(=O)(=O)N2CCCCC2)cc1", "Potency": "inconclusive [activator, single point]"}, {"smiles": "Cc1nc(Cl)sc1C(=O)O", "Potency": "inconclusive [activator, single point]"}, {"smiles": "COc1cccc(OC)c1OCCNC[C@@H]1COc2ccccc2O1", "Potency": "active: 31.6 µM"}, {"smiles": "O=C(CNCC1CCCO1)Nc1ccc(N2CCCCCC2)cc1", "note": "(stereo not drawn)", "activation": "inactive: -17.1%"}, {"smiles": "COc1ccc(Oc2ncc3nc(-c4ccccc4)c(=O)n(C4CC4)c3n2)cc1", "Potency": "inconclusive [activator, full curve, poor fit]"}, {"smiles": "COC(=O)c1ccc(C#CC(NP(=O)(c2ccccc2)c2ccccc2)c2ccccc2)cc1", "note": "(stereo not drawn)", "Potency": "inconclusive [activator, partial curve]"}, {"smiles": "CCOC(=O)c1c(NC(=O)OC)sc2c1CCC2", "activation": "inactive: 22.5%"}, {"smiles": "Cc1nnc(NC(=O)CSC2CCCCC2)s1", "Potency": "inconclusive [activator, partial curve]"}, {"smiles": "FC(F)(F)c1ccccc1-c1ccc2ncnc(NC3CC3)c2c1", "Potency": "active: 31.6 µM"}, {"smiles": "COc1ccccc1-c1oc2ccccc2c(=O)c1OC", "Potency": "active: 31.6 µM"}, {"smiles": "CCCc1cc(C(N)=S)ccn1", "Potency": "inconclusive [activator, single point]"}, {"smiles": "Cc1cccc(-c2nnc(-c3ccc(N)cc3)o2)c1", "activation": "inactive: 4.43%"}]}]}
